Several values for one entry are separate records, joined by “and”; a condition that tells them apart may be missing. Equal values may be shown once.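 Method: 48-hour compound exposure of cells in 96-well plates, five concentrations, linear interpolation of endpoints. GI50 = concentration required for 50% inhibition of growth. TGI: concentration producing complete growth inhibition.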
What follows are compounds tested on NCI-H322M lung (assay: NCI anticancer screen, dose series, 48 h).

| Structure (SMILES) | TGI | GI50 |
| --- | --- | --- |
| O=[N+]([O-])c1cccc(S(=O)(=O)N/N=C/c2cc(I)cc([N+](=O)[O-])c2O)c1 | 68.7 µM | – |
| O=C1N/C(=N\N=C\c2ccccc2)C2(CCCCC2)O1 | > 100 µM | – |
| CC1(C)OC[C@H](COCOP2(=O)Oc3ccc4ccccc4c3-c3c(ccc4ccccc34)O2)O1 | 34 µM | – |
| N#Cc1c(N)nc(SCc2ccccc2)c(C#N)c1-c1ccc(O)cc1 | 25.6 µM | – |
| CC(=O)CCc1ccc(Oc2c3c(nc4ccccc24)OCC3)cc1 | > 100 µM | 86.1 µM |
| COC(=O)C12C34C=CC5(CCC6(C=CC1(CC3)O6)C52C(=O)OC)O4 (centres undefined) | > 100 µM | – |
| CC(=O)N1C(CCc2ccccc2)CC(C)(C=O)C1Cc1ccc(O[Si](C(C)C)(C(C)C)C(C)C)cc1 (centres undefined) | 26.8 µM | – |
| O=C(/C=C/c1ccccc1)c1cc(C(=O)/C=C/c2ccccc2)c(O)cc1O | > 100 µM | – |
| CC1=CC(C)(C)Nc2ccc(Cc3ccc4c(c3)C(C)=CC(C)(C)N4)cc21 | > 100 µM | 24.4 µM |
| Cn1cc(C2=C(c3cc[nH]c3)C(=O)NC2=O)c2ccccc21 | > 25 µM | > 25 µM |
| O=C1NC2(CCCCC2)C2CCCCC=C12 (centres undefined) | > 100 µM | – |
| COC(=O)[C@@H](NC(=O)[C@H](N)Cc1ccc(N(CCCl)CCCl)cc1)C(C)C | > 100 µM | – |
| C[C@@H](CS[As](C)C)C(=O)N1CCC[C@H]1C(=O)O | 10.4 µM | 2.7 µM |
| C#CCOc1cccc(Nc2ncnc3cc(NC(=O)C=C)ccc23)c1 | > 100 µM | 23.6 µM |
| Cc1cc(N(CCC#N)CCC#N)ccc1/C=C(\NC(=O)/C=C/c1ccccc1)C(=O)Nc1ccc(Cl)cc1 | > 100 µM | – |
| CN(C)N=Nc1cccc(C(N)=O)c1 | > 100 µM | – |
| O=C(Cn1c(C(=O)/C=C/c2ccc(Cl)cc2)nc2ccccc21)c1ccc(Cl)cc1 | 61.8 µM | – |
| C=C1C2CC3CCC2C(OC(=O)c2ccccc2C(=O)O)C13 (centres undefined) | > 100 µM | – |
| CCOC(=O)CC(=O)Nc1cccc2sc3ncccc3c(=O)c12 | > 100 µM | – |
| Cc1ccc2c(=O)c(-c3nnc(NC4CCCCC4)s3)c[nH]c2n1 | > 100 µM | – |
| NC(Cc1cccnn1)C(=O)O (centres undefined) | > 100 µM | – |
| c1csc(-c2ccc(CNc3c4ccccc4nc4ccccc34)cc2)c1 | 2.97 µM | 1.58 µM |
| O=C(Cn1c2c(c3ccccc31)CCCC2)N1CCCCC1 | > 100 µM | – |
| C=CCSC1=N/C(=C\c2ccc(OC)cc2)C(=O)N1CC=C | > 100 µM | – |

| Structure (SMILES) | TGI | GI50 |
| --- | --- | --- |
| CN(C)CC1C(=O)O[C@H]2[C@H]1CC/C(COC(=O)NCc1ccc(Cn3c(=O)sn(CCCI)c3=O)cc1)=C\CC[C@@]1(C)O[C@@H]21 (some centres undefined) | 13.2 µM | 6.75 µM |
| COC(=O)c1c2c(c(C)[n+]([O-])c1C)C(=O)C(NCc1ccc(F)cc1)=CC2=O | 4.72 µM | 1.51 µM |
| CCCCCCCCC(C)CCCCCCCCC(=O)OCC(COP(=O)([O-])OCC[N+](C)(C)C)OC(=O)CCCCCCCCC(C)CCCCCCCC (centres undefined) | > 100 µM | – |
| COc1ccc(/C=C2\CCC(C)c3c2nc(N)c(C#N)c3-c2ccc(OC)c(OC)c2)cc1OC (centres undefined) | > 100 µM | – |
| Cc1nn(Cc2ccccc2)cc1C(=O)Nc1sc2c(c1C(N)=O)CCC(=O)C2 | > 100 µM | 6.28 µM |
| N#C/C(=C\c1ccc([N+](=O)[O-])o1)c1n[nH]c(Cc2ccccc2)n1 | 29.3 µM | – |
| C(=C\c1ccncc1)/c1ccncc1 | > 100 µM | > 100 µM |
| O=NN1CCN=C1c1ccc([N+](=O)[O-])cc1 | > 100 µM | – |
| COC(=O)[C@]12C3=C(O)C(=O)C[C@H]1OC[C@H]2C=CC3 | > 100 µM | – |
| Cc1ccc2c(n1)NC(=O)C(Cc1ccccc1)(N=[N+]=[N-])C2=O (centres undefined) | > 100 µM | – |
| CCOC(=O)N/N=C(\CC)NO | > 100 µM | – |
| Oc1ccc(Cl)cc1Sc1cc(Cl)ccc1O | 50.5 µM and 32.7 µM | 14.1 µM |
| Cc1cc(Cl)nc(N(CCCNc2ccnc3cc(Cl)ccc23)Cc2cccs2)n1 | 9.84 µM | 1.62 µM |
| Cc1ccc(C)n2c1nc1cc3ccccc3cc12 | > 100 µM | – |
| Cc1ccc(C)c(NC(=O)C(=O)C2C(=O)N(c3ccccc3)N=C2N)c1 (centres undefined) | > 100 µM | – |
| CC(=O)O[C@@H]1C2=C(C)C3(CC3)[C@@](C)(O)C(=O)C2=C[C@@]1(C)CO | 7 µM | 1.87 µM |
| CO[C@@H]1C[C@H]2[C@@H]3CC[C@H]([C@H](C)COC(C)=O)[C@@]3(C)CC[C@@H]2[C@@]2(C)CC[C@H]3C[C@]312 | > 100 µM | – |
| O=C1C[C@@H]2[C@@H](c3ccccc3)[C@@H]3C(=O)c4ccccc4NC(=O)[C@H]3[C@]2(O)c2ccccc2N1 | > 100 µM | – |
| CC1CC(=NC2CCCCC2)Nc2ccccc2N1Cc1ccccc1 (centres undefined) | 26.5 µM | – |
| O=c1oc2ccccc2c(O)c1C(c1cccc(C(c2c(O)c3ccccc3oc2=O)c2c(O)c3ccccc3oc2=O)c1)c1c(O)c2ccccc2oc1=O | > 100 µM | – |
| COc1cccc(N2CCN(c3ncnc4cc[nH]c34)CC2)c1 | > 100 µM | > 100 µM |
| COc1cc2c(NC3CCN(C(C)C)CC3)nc(C3CCCCC3)nc2cc1OCCCN1CCCC1 | 22 µM | 8.52 µM |
| O=C(NNc1ccccc1)c1ccc(Cl)c(Cl)c1 | > 94.5 µM | – |
| COc1ccc(/C=C\c2cc(OC)c(OC)c(OC)c2)cc1OC(=O)CC(N)C(=O)O (centres undefined) | > 100 µM | 0.0034 µM |

Reference: PubChem BioAssay (NCI)
